# Measurements published in the supplement of paper PMC3334620.
# Whole data set: some 33,000 sequences, median “E-score (-0.5 to 0.5)” near -0.04, cut for the highest 2% near 0.36. Some of the results follow.
# Target: T1, Hmlalpha2 (UniProt P0CY09)
# T1 sequence: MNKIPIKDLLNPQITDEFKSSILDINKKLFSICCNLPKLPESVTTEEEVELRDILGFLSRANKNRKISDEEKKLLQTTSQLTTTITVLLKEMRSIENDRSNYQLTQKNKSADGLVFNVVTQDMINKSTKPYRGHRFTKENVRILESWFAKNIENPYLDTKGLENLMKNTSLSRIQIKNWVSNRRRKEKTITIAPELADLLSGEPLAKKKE
# Assay: PBM E-score (8-mer binding enrichment) (E-score (-0.5 to 0.5)); higher = stronger / more preferred TF binding; most listed sequences are background and not binding sites
# Details: protein concentration: 200 nM; construct: GST-full length
# Method in brief: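 PURExpress in vitro transcription/translation supplied GST-tagged yeast transcription factors, either full-length or DNA-binding domain. Applied at about 100-200 nM to universal all-10-mer Agilent arrays double-stranded by primer extension, the bound protein was detected with fluorescent anti-GST. E-scores, modified Wilcoxon-Mann-Whitney statistics, were given by the Universal PBM Analysis Suite to ungapped eight-base words pooled with their reverse complements after masliner normalisation.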
row,Sequence,PBM E-score
1,CATAAATA,0.142
2,CTGAAAAC,0.1
3,TCGAACGA,-0.055
4,ATACTGAC,0.0396
5,GAGGTATC,-0.205
6,CCAAATAG,-0.0531
7,CCCACGAG,-0.222
8,CCGGCTAC,-0.146
9,AGACTGTC,-0.109
10,ACGTGGAG,-0.0611
11,CCTCTTCG,-0.127
12,ATGCCCTA,-0.295
13,CTTGCCTC,0.0275
14,AGTATATA,0.212
15,GCGATGGA,-0.142
16,AACGAGCC,0.128
17,AGCTTGCC,-0.108
18,AGGACTCC,-0.326
19,CGCCCCAC,-0.207
20,CCACTAGA,-0.201
21,ACCACCTA,-0.105
22,ACGCGGTC,0.186
23,CACTGAAC,0.0626
24,ATCCCTAG,-0.00744
25,CTGACGCC,-0.221

row,Sequence,PBM E-score
1,CTGCCCCC,-0.223
2,AAAGGTAG,-0.129
3,AGCTCATG,0.0858
4,CTCTAAAG,-0.199
5,ACTCATAA,-0.0412
6,ACGCAACC,0.193
7,AAGGGCAC,-0.219
8,GCATTGCA,-0.00304
9,CGCGGCTA,0.0299
10,CGGAGTCC,-0.0041
11,CACGACGA,0.122
12,AACGGTGA,-0.0705
13,AATACAAT,0.249
14,ATCCGTTC,0.0296
15,CAAAACGA,0.167
16,CAAATTAA,0.061
17,ATGAGATC,0.073
18,AAGTGGAG,-0.0852
19,TAAACAGA,0.22
20,ATCACCTA,-0.0987
21,AATCATGC,-0.107
22,CTCAAGCA,-0.0177
23,CATTCTGC,-0.173
24,GTCTCGTA,0.0905
25,GAGGATCC,-0.149

row,Sequence,PBM E-score
1,ACACATGC,0.306
2,GAATGACC,-0.306
3,AATAGTTA,0.046
4,ACGCCTAC,-0.0784
5,CCTTCCGC,-0.259
6,CCTCCAAG,-0.13
7,AATCGATA,0.169
8,AGGCACCA,-0.167
9,ACTCATCA,-0.0754
10,ACCGTTAT,-0.0712
11,AGAGCCCG,-0.242
12,GAACACCA,0.0348
13,ATTAACAA,0.415
14,TCGATAGA,-0.00433
15,CACATCTC,-0.0163
16,TCGTTAAA,0.126
17,TCATCAAA,-0.0188
18,ACCCATCC,-0.208
19,CATTAGTA,0.152
20,AAGTGGGG,-0.313
21,AGCACTTC,0.148
22,GAGCAATA,-0.186
23,ACAGGAAT,0.0217
24,TGGGTGAA,0.119
25,GACCAGGA,-0.197

row,Sequence,PBM E-score
1,GCGGCTAA,-0.128
2,CACCTGAG,-0.146
3,CGAATATC,-0.0497
4,AGGATAAG,-0.147
5,TATTCTAA,0.186
6,TTCATCAA,0.0435
7,TAGCATGA,0.227
8,CGATCGAC,0.049
9,ATTCAATA,0.166
10,CAGACCCG,-0.151
11,ACGGGCAA,-0.174
12,ATCAGTAC,0.155
13,CTACTATC,0.0556
14,GTCTAAAC,0.107
15,CAATTCAG,-0.106
16,TTCGTCAA,0.0293
17,AAGAACGT,0.215
18,CCCCATGC,-0.0157
19,CTAGCGAG,-0.149
20,AGGTAAGA,-0.0177
21,ATCAACAT,0.44
22,CCAGTCCC,-0.223
23,ATTTTCAC,0.151
24,CAGCGTGC,-0.0313
25,TGCCTCCA,-0.233

row,Sequence,PBM E-score
1,AAGCCAAC,0.00741
2,AATTATAG,0.12
3,GCGTATGA,0.164
4,AACCAATG,0.0425
5,AGGACTTG,-0.11
6,GCGAAGGA,-0.11
7,GTATAGGA,0.0557
8,GCCCCAGC,-0.329
9,AAGTTCCC,-0.296
10,TGCTGCCA,-0.206
11,CCCATCAA,-0.0626
12,CACCTTCC,-0.11
13,ATTCCACA,0.148
14,AAAGTCTA,-0.0317
15,ACTGACGC,-0.128
16,GAGAACAA,0.0893
17,ATCATCTC,-0.0434
18,TGAATCAA,0.211
19,ACGTAGAA,0.33
20,GTTCAACA,0.367
21,AAACACCA,-0.0494
22,ACGGCCCA,-0.252
23,ATTGGGCA,-0.112
24,CAGTCTAG,-0.148
25,AGTTTCCG,-0.0968

row,Sequence,PBM E-score
1,CTAGGTCA,-0.0803
2,ATCGCTGG,-0.18
3,CGCCCGGA,-0.244
4,GGTTCCAC,-0.225
5,CACTGCAA,0.0779
6,ACGTCGCT,-0.0609
7,TAAGGTCA,-0.0749
8,AATCGGCG,-0.00313
9,CCATAAGG,-0.32
10,ACCCCTAA,-0.267
11,ACAAAGGT,0.0752
12,ACAAACGT,0.206
13,ACACACAA,0.313
14,CGAGCGCC,-0.271
15,CCGGTTCG,-0.303
16,CGAGGACC,-0.0457
17,AGCTGAGG,-0.214
18,GATGCAGA,-0.187
19,CTAACGAG,-0.00199
20,CCTGAACG,-0.0873
21,CCAACCGA,-0.166
22,AGGCCCCA,-0.359
23,CACTAGAC,-0.139
24,AGCTCACA,0.0488
25,ATAGTGCA,0.0575

row,Sequence,PBM E-score
1,ACTGCTAA,-0.206
2,GGATCCTA,-0.154
3,AGCTTTAT,0.111
4,ATTTCCAA,-0.0363
5,CTCGCGGA,-0.345
6,CCATCCAG,-0.194
7,GACATTGA,0.0783
8,AAATAGCA,0.0943
9,AGCCATGC,0.0383
10,AGATGGGG,-0.263
11,AACTTAGA,0.105
12,ACGAGCGT,0.028
13,CGTCTGGA,-0.162
14,GCACGAAC,0.194
15,CCATCTAA,0.0202
16,GGAATCAC,-0.0376
17,AGAGCACG,0.0212
18,AACACTAA,0.189
19,GATAAGGA,0.0436
20,GGAAATGA,-0.0675
21,AACAACTG,0.0985
22,AATCACGT,0.239
